The full ranking holds about 33,000 sequences; the median of “E-score (-0.5 to 0.5)” is about -0.016, and the highest 2% start at about 0.31. The list shows a part of the results.
These sequences were tested against Cst6 (UniProt P40535) (assay: PBM E-score (8-mer binding enrichment) (E-score (-0.5 to 0.5)); higher = stronger / more preferred TF binding; most listed sequences are background and not binding sites). Details: protein concentration: 200 nM; construct: GST-DNA-binding domain.
Procedure: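 Universal 'all 10-mer' protein binding microarrays (Agilent AMADID 015681) probed with GST-tagged S. cerevisiae TFs (full-length or DBD) made by in vitro transcription/translation (PURExpress), about 100-200 nM. Bound TF was detected with fluorescent anti-GST. Each ungapped 8-mer (which stands for itself and its reverse complement) is scored by the PBM enrichment score (E-score), a modified Wilcoxon-Mann-Whitney statistic from -0.5 to +0.5, computed with the Universal PBM Analysis Suite. Scale: above 0.35 generally sequence-specific binding.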

Sequence	PBM E-score
CAATTGTA	-0.0548
AACGAGTA	0.0339
CGTGGATA	-0.0636
ATCCAGTC	-0.124
AAGCGGTC	-0.162
ACGTTCAG	-0.119
GCGGTACA	0.0324
AGCACACT	-0.136
AGACTACC	-0.0496
ATCAAACC	0.134
GCATAGCC	-0.144
CCATTATC	0.109
CCAGTCCG	-0.369
AACAGATC	0.0882
GTTGGCTA	-0.0861
ACGCGCCC	0.0513
GGGTTACC	-0.19
CGTGCAAC	0.0271
GTCTTAGA	-0.0166
GCTGCTAA	-0.157
AATACAGG	-0.00258
ATAACGGA	0.0881
AGGCTTAT	0.0253
ATAGCCTA	-0.00384
CCCCTCCA	-0.131

Sequence	PBM E-score
AGATTCCC	-0.0816
ACGATGGG	-0.123
CTATAACA	-0.00043
CCTGGGGC	-0.365
AACTGCTC	-0.0302
CGCTCTCC	-0.244
ACATGAAT	0.154
CATCTGCC	-0.172
TAATCAGA	0.0853
CATTTCAC	0.0118
CTCCGCAC	-0.0765
GCCCTCAC	-0.144
CGATCTAC	-0.0652
GTTGCTAA	0.0649
CTGTGAAG	-0.145
CCCTGTGA	-0.0755
CGAACAGC	-0.162
CCTGTTAC	0.0428
ATTTCCCA	0.0756
ATAACACG	0.0187
AGGCATCC	-0.192
GGAAGTTA	0.0687
AATCAAAC	0.228
GGTTCATA	-0.0466
CCCCCCGG	-0.359

Sequence	PBM E-score
AGAGATCC	-0.209
CTAGCCGC	0.122
CCACTTAC	0.226
GGCGCGCC	0.189
ACTACAAT	0.124
ATTGCAAG	-0.0304
AGATCACA	0.0965
AAGGCTAT	-0.00067
AGGCAGAA	-0.0542
CCCGAAAG	-0.189
CATGTGGC	0.198
CGTCCATA	0.0416
GCGGTATA	-0.0382
GGCCACCA	-0.0259
CGGAATTA	0.139
AGAGCAAG	-0.096
ACACGAGT	0.028
GGTACTAA	0.0892
ACAATCGT	0.0442
GTGGCTAA	0.18
ACGATCCC	-0.247
CCAAGCGG	-0.277
ACCTGATA	0.0632
CCCGTTCA	-0.214
CCAACAGG	-0.296

Sequence	PBM E-score
CTATATAC	0.338
AAAGGGGG	-0.279
TTGACAAA	0.173
ATGCGAAT	0.0707
AATAATGA	0.288
GAAAATGA	0.172
AACCTTAT	-0.0574
ACTCCGGA	0.078
AACGGATA	0.17
CCAGTCAA	-0.094
ACGGGCAC	-0.105
CGCGAGGC	0.218
AATAGATC	0.0908
CCTTAGCC	0.00557
TCTAAAGA	0.141
AAGTCATC	0.114
AGAAGGCC	-0.15
AAGAACGG	-0.194
CTGCCAAA	-0.093
CGATTCTA	-0.0553
AAAAGTCC	-0.0737
AGTCCACT	-0.257
AAGAAGGT	-0.0538
CTACCGCC	-0.135
CGATAAGC	-0.119

Sequence	PBM E-score
TGGAGGAA	-0.211
AGATAGGG	-0.153
AGACCAAG	-0.0456
GAATGCAA	0.0526
ACCGGTAC	-0.162
GCGTTAGA	-0.0463
AATTAACG	0.226
ATTACCTC	0.195
AACGCGAC	-0.14
ATGCAAAG	0.0281
GGGCTTCA	-0.297
ATAGTCAG	0.0343
CAAACGCG	0.0743
GCACCAGA	0.025
AGCCGCAA	-0.127
CCGCTTTC	-0.117
ACAATAAT	0.233
CGACCTCG	-0.0837
TCACGAGA	0.0367
ACTGAAGC	0.069
CACTCCTG	-0.129
ATGATAGC	0.191
GAAAGTCA	0.0808
AAAGCCCA	6e-05
AAGAATTA	0.157

Sequence	PBM E-score
ACCCGGAA	-0.0522
CTGAAGGC	-0.0853
GTCTAGAA	-0.0503
TATTTAGA	0.156
CATCCCCG	-0.107
CAAAATTC	0.246
ATCTGGTC	-0.126
TGATGCAA	0.418
GACAAACA	0.123
TGCCGACA	0.0401
CCATTGTA	0.0543
TACAAGCA	0.126
AATGCACT	0.0519
ACGTATAT	0.237
CCCGAAAC	-0.0275
CTACAGGA	-0.0104
AAATGATC	0.0366
CGGGCTCC	-0.362
CAGGACCG	-0.29
GGCCTTAC	-0.121
CGGGCGGA	-0.163
AAAGATAA	0.308
CTTATCAC	0.0776
GGATGCGA	-0.196
AGGAAACT	-0.138

Sequence	PBM E-score
ACCCTATA	-0.214
ATTCCATC	0.199
CCCAATTA	0.0563
CCACATGA	0.144
GAAGTGAC	0.263
CGAAGGGC	-0.0477
CTCACGTC	0.14
CGGGACTA	-0.284
GAAACGAA	0.182
AAAATATG	0.209
GCCAATTA	0.065
ACGTTTAG	0.126
CGTGTGTC	0.0817
ATGCTTCG	-0.0104
ACAGGATC	-0.244
CGACTTGC	-0.0945
TACAGCTA	-0.236
CGTGAAAC	0.179
ACAATGAT	0.269
GTGAGGAA	-0.0605
ACGCAAAT	0.161
TCCACGAA	0.158

— the supplement of paper PMC3334620
